Experimental data taken from PubChem BioAssay AID624417 (National Center for Advancing Translational Sciences (NCATS), 2012).
The campaign covered roughly 410,000 compounds. About 6,400 (1.6%) were called active. The inconclusive results got no clear call from the source; some entries with a clear call stand among them for comparison. The call rests on the fitted dose curve; in most records, active means well fitted inhibition curve with a large enough effect; inconclusive means small, poorly fitted or top-dose-only effect; inactive means no such curve, though single readings can be large or run the other way. Where the call is inconclusive, the potency comes from a doubtful curve fit.

What follows are compounds tested against Glucagon-like peptide 1 receptor (Homo sapiens) (UniProt P43220) (assay: qHTS of GLP-1 Receptor Inverse Agonists (Inhibition Mode)). Settings: HEK293 GLP-1R CRE-luciferase, luminescence, 24 h, GLP-1R form is constitutively active; activity change, negative = inhibition: at 38.3 µM (top of the series) unless noted.
Procedure, shortened: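 HEK293 cells stably co-expressing a cAMP-responsive luciferase reporter and constitutively active GLP-1R were seeded, incubated 12 h, then exposed to compounds for 24 h at 37 C. Luminescence was read 12 min after detection reagent; inverse agonists lower signal.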
Further: nearly all actives have a fitted effect of over 55% in size.
On the % scale 0 is the no-effect control and ±100 the full control effect; potency means the concentration at half of the fitted maximal effect; tags describe the fitted curve by direction and shape.

Sequence of UniProt P43220 (P43220 whole entry, looked up): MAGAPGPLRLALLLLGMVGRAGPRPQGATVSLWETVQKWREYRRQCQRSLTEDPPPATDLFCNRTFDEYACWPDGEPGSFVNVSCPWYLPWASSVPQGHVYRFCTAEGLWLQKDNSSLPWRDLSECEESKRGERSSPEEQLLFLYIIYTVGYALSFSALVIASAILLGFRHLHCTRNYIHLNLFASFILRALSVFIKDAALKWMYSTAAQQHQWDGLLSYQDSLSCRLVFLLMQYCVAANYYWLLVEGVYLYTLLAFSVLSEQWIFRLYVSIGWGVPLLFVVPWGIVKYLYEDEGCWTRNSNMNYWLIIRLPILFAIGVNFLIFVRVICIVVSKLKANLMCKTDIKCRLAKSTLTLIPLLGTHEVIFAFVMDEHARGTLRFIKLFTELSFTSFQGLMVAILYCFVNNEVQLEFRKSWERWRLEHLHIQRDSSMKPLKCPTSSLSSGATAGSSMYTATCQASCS

Activity change, negative = inhibition, inactive:
CCOc1ccc2nc(N3CCCC(C(=O)Nc4ccc(Br)c(C)c4)C3)sc2c1 (stereo not given) 13.5%, O=C(NCCN1CCC(n2c(=O)[nH]c3ccccc32)CC1)c1cccc2c1-c1ccccc1C2=O -4.11%, Cc1ccc(NC(=O)C2CCCN2S(=O)(=O)c2cccc3cccnc23)cc1 (stereo not given) 1.38%, CCOc1ccc(CNC(=O)c2cc3c(=O)n(C)c4ccccc4c3s2)cc1 2.95%, O=C(c1ccc2c(c1)OCCO2)N(Cc1cccnc1)c1nc2ccc(F)cc2s1 4.76%, O=C(O)CN=C(NS(=O)(=O)c1ccc(Cl)cc1)c1ccc(F)cc1 -5.3%, O=C(O)c1ccccc1-c1ccccc1C(=O)NCc1ccccc1F 2.84%, O=C(NCc1ccco1)c1ccc2c(c1)C(=O)N(Cc1ccccc1)C2=O 10.8%, Cc1ccc(OCC(=O)OCc2cc(=O)n3c(C)csc3n2)cc1 6.69%, O=C(CN1CCN(S(=O)(=O)c2ccc(F)cc2)CC1)Nc1ccccc1C(=O)NC1CC1 -10.2%, CCOC(=O)CN1C(=O)C(CC)Oc2ccccc21 (stereo not given) -1.78%, COc1cccc(C(=O)Nc2ccc(F)c(F)c2F)c1 -15%, CC(=O)NCN1CCN(CNC(C)=O)CC1 1.81%, Cc1ccc2oc(C(=O)Nc3sc4c(c3C(=O)NCc3ccccc3)CCCC4)cc(=O)c2c1 1.62%, Cn1c2nc(=O)[nH]c(=O)c-2cc2ccccc21 0.284%, Cc1ncsc1CCSc1n[nH]c(=O)n1-c1ccccc1 13.6%, O=C(NC1CCN(C(=O)Nc2ccc(F)cc2)CC1)c1cccc(F)c1 4.34%, CCOC(=O)N1CCC(NC(=O)CCC(=O)N2CCOc3ccc(Cl)cc32)CC1 2.14%

Potency, inconclusive:
C[C@]12c3[nH]c4ccc(Cl)cc4c3CCN1C(=O)[C@@H](CC(=O)NCCc1ccccn1)C[C@@H]2C(=O)N1CCOCC1 2.51 µM [inhibitor, partial curve, poor fit], Cc1cc(-c2nn(-c3ccccc3F)cc2CNCCc2cnccn2)c(C)s1 11.2 µM [inhibitor, single point], CC1=CC(C)(C)Nc2ccc(OC(=O)C(Cc3ccccc3)N3C(=O)c4ccccc4C3=O)cc21 (stereo not given) 10 µM [inhibitor, partial curve, poor fit], Cc1ccc(S(=O)(=O)N(C)c2ccc(OCC(=O)N3CCCCC3)cc2)cc1 11.2 µM [inhibitor, partial curve, poor fit], Cc1cc(C)nc(SC2CCCCC2NS(=O)(=O)c2ccc(Cl)cc2)n1 (stereo not given) 11.2 µM [inhibitor, partial curve], O=C(Cn1cc(SCc2cccc(Cl)c2)c2ccccc21)N1CCOCC1 28.2 µM [inhibitor, single point], Cc1ccc(C(=O)CSc2nccn2-c2ccccc2)cc1 14.1 µM [inhibitor, partial curve, poor fit], O=C(CSC(=S)N1CCOCC1)c1ccccc1 10 µM [inhibitor, partial curve, poor fit], O=C(NC(=S)NCCc1ccc(Cl)cc1)c1ccco1 31.6 µM [inhibitor, single point], COc1ccccc1N(CC(=O)Nc1cc(C)on1)S(=O)(=O)c1cccc(C(F)(F)F)c1 14.1 µM [inhibitor, single point], Cc1cc(C(=O)COC(=O)c2ccc(NC(=O)CC#N)cc2)c(C)n1-c1ccc(OC(F)F)cc1 28.2 µM [inhibitor, single point], O=C(CSCc1ccc(Cl)cc1)N/N=C/c1ccc(OCC(=O)Nc2ccccc2)cc1 28.2 µM [inhibitor, single point], N=C1S/C(=C\c2cccc3ccccc23)C(=O)N1c1ccc(F)cc1 4.47 µM [inhibitor, partial curve, poor fit], CN(C)S(=O)(=O)c1cccc(NC(=O)CNCC2CCCCC2)c1 28.2 µM [inhibitor, single point], CCCCN(C)S(=O)(=O)c1cc2c(cc1Br)CCN2C(=O)C1CC1 7.94 µM [inhibitor, partial curve, poor fit], Cc1cc(F)ccc1NC(=S)NCCc1ccccc1 31.6 µM [inhibitor, partial curve, poor fit], CCCC1NC(=S)N(C2CCCCC2)C1=O (stereo not given) 10 µM [inhibitor, single point], CCCOc1ccccc1OCC(=O)Nc1ccc(S(=O)(=O)N2CCCCC2)cc1 8.91 µM [inhibitor, partial curve, poor fit], CC1CCCC(NC(=O)CN2C(=O)c3cccnc3Oc3ccc(Cl)cc32)C1C (stereo not given) 10 µM [inhibitor, partial curve, poor fit], CCC(=O)NC1=C(Cl)C(=O)C(NC(=O)CC)=C(Cl)C1=O 28.2 µM [inhibitor, single point], CCN1CCN(c2ccc(S(=O)(=O)N3CCOCC3)cc2NC(=O)C2CCC(C(C)(C)C)CC2)CC1 (stereo not given) 12.6 µM [inhibitor, single point], Nc1nonc1-c1nc2ccccc2n1Cc1ccc(F)cc1Cl 1.26 µM [inhibitor, full curve, poor fit], Cc1ccc(C)c(OCCC(=O)Nc2ccc3c(c2)OCO3)c1 12.6 µM [inhibitor, single point], CCc1ccc(NC(=O)c2cc3c(C)nc4ccccc4c3o2)cc1 14.1 µM [inhibitor, single point], Cn1c(-c2ccc(F)cc2)cnc1NCc1ccc(F)cc1F 5.62 µM [inhibitor, full curve, poor fit], O=C(Nc1ccccc1N1CCCC1)C1CCN(S(=O)(=O)c2cccc(C(F)(F)F)c2)CC1 10 µM [inhibitor, partial curve, poor fit], C[C@H]1CN([C@@H](C)CO)S(=O)(=O)c2ccc(Br)cc2O[C@H]1CN(C)Cc1ccc(F)cc1 28.2 µM [inhibitor, single point], Cn1cc(CN2CCC(C(O)c3cccs3)CC2)c(-c2cccc(Cl)c2)n1 (stereo not given) 31.6 µM [inhibitor, single point], CS/C(N)=N/N=C/c1cc(C)ccc1O 10 µM [inhibitor, single point], CCC1CN(C(=O)Nc2cc(OC)cc(OC)c2)c2ccccc2S1 (stereo not given) 11.2 µM [inhibitor, single point], O=C(COc1ccccc1Cl)Nc1ccc(N2CCN(C(=O)c3ccccc3)CC2)cc1 5.62 µM [inhibitor, full curve, poor fit], CC(=O)N1CCCc2cc(S(=O)(=O)N(CC(C)C)CC(C)C)ccc21 11.2 µM [inhibitor, partial curve, poor fit], COc1ccc(/C=C/C(=O)OCC(=O)Nc2cccc(S(=O)(=O)NC3=NCCCCC3)c2)cc1 31.6 µM [inhibitor, single point], CCOc1ccc(NC(=O)c2ccc3nc(Cc4ccccc4)oc3c2)cc1 28.2 µM [inhibitor, single point], O=C(N/N=C/c1c(O)ccc2ccccc12)c1cccc(C(F)(F)F)c1 2 µM [inhibitor, full curve, poor fit], Cc1noc(C)c1COc1ccc(C(=O)N2CCN(c3ccccc3F)CC2)cc1 11.2 µM [inhibitor, single point], COc1ccc(CN(C(=O)c2ccc(-c3ccccc3)[nH]2)C(C(=O)NCC2CCCO2)c2ccc(C)o2)cc1 (stereo not given) 10 µM [inhibitor, single point], CC(C)(C)NC(=O)CN(C(=O)Cn1nnc(-c2ccccc2F)n1)c1cccc2c1CCCC2 7.08 µM [inhibitor, partial curve, poor fit], O=C(NCc1nc(-c2ccc(C(F)(F)F)cc2)no1)Nc1ccc(F)cc1F 10 µM [inhibitor, single point], Cc1ccc(N2C(=O)c3ccccc3C2Nc2ccc(S(=O)(=O)N3CCCCC3)cc2)nc1 (stereo not given) 10 µM [inhibitor, single point], O=C1CC(Nc2cc(=O)[nH]c(=O)[nH]2)C(=O)N1c1ccccc1Cl (stereo not given) 3.55 µM [inhibitor, full curve], COCCN1C(=O)/C(=C/c2ccc(Oc3ccc([N+](=O)[O-])cn3)c(OC)c2)SC1=Nc1ccccc1 1 µM [inhibitor, full curve, poor fit], COc1cccc(CNC(=O)CCC2CCCN(C(=O)c3cc4ccccc4o3)C2)c1 (stereo not given) 31.6 µM [inhibitor, single point], CC(C)C[C@H]1CN([C@@H](Cc2ccccc2)CN2CCC[C@@H]2CN2C(=O)C(=O)NC[C@@H]2Cc2ccccc2)C(=O)C(=O)N1CC1CCCCC1 31.6 µM [inhibitor, partial curve, poor fit]

Potency, active:
Cc1ccc(C(=O)CC2(O)C(=O)N(CCc3ccccc3)c3ccc(Br)cc32)o1 (stereo not given) 7.94 µM, CCOC(=O)c1ccc(N2CCN(c3ccccc3F)CC2)c(NC(=O)Nc2ccccc2)c1 2.51 µM, Cc1cccc(Nc2nc(-c3ccccc3)cs2)n1 3.16 µM
